Screen size: about 43,000 compounds; about 200 (0.47%) were called active. Inconclusive results (about 12%) are left out. Calls follow the shape of the dose curve; as a rule, active = well fitted cell-killing curve with a large enough effect; inconclusive = small, poorly fitted or top-dose-only effect, or effect the other way; inactive = flat fitted curve, though single readings scatter. Some of the results follow.
% is scaled to controls: 0 for no effect and ±100 for the full control effect.

The nature of this assay: Cell viability qHTS assay in S16 Pmp22-F2sN cells. Also: nearly all actives have a fitted effect of over 65% in size. To be noted: S16 Pmp22-F2sN Schwann cells (luciferase reporters placed in the Pmp22 gene) viability, CellTiter-Glo, 24 h; series mostly up to 57.5 µM; activity change, negative = cytotoxicity: at the top concentration. Put shortly: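 Rat S16 Schwann reporter line, 24 h treatment with library compounds delivered at 23 nL per well. Cell viability by CellTiter-Glo luminescence.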
(In qHTS, concentration-response curves come from the screen itself.)
As to `Cc1ccccc1Nc1c(-c2cccs2)nc2cccc(C)n12`, the “activity change, negative = cytotoxicity” value is inactive: -0.796%.
To `CC1Cc2cc(S(=O)(=O)N(Cc3ccccc3)C(C)C)ccc2N1C(=O)C1CCC1` (stereo unspecified) belongs inactive: -23.9%; to `CCOc1ccc(/C=C/c2nc(C#N)c(NCCc3ccccc3)o2)cc1`, inactive: -7.49%.
For `O=C(CSc1nc2c([nH]c3ccccc32)c(=O)n1-c1ccc(Cl)cc1)NCC1CCCO1` (stereo unspecified) the value was inactive: 12%; for `Cc1cc(C(=O)Nc2c(C)nc3ccccn3c2=O)ccc1[N+](=O)[O-]`, inactive: 0.837%; for `Cc1ccc(-n2c(SCC(N)=O)nc3c(oc4ccccc43)c2=O)cc1C`, inactive: -3.91%.
To `COc1cccc(C(=O)Nc2ccccc2-c2nnc(-c3cccc(OC)c3)o2)c1` belongs inactive: -23.6%.
Take `O=C(Cn1c(=O)oc2cc(S(=O)(=O)NCc3ccccc3)ccc21)NCc1ccc(Cl)cc1`: the “activity change, negative = cytotoxicity” value is inactive: -25%.
Consider `CC(=O)Nc1ccc(S(=O)(=O)NC2(C(F)(F)F)NC(=O)N(CCc3ccc(F)cc3)C2=O)cc1` (stereo unspecified), for which the “activity change, negative = cytotoxicity” value was inactive: 7.04%.
Turning to `COc1ccc(CNC(=O)CCc2nc(-c3ccc(C)cc3)no2)c(OC)c1`, the “activity change, negative = cytotoxicity” value was inactive: -20.1%.
For `O=C(Nc1ccc2nc(SCC(=O)N3CCc4ccccc43)sc2c1)c1ccccc1F` the value was inactive: 20.4%; for `Cn1cc(S(=O)(=O)c2ccccc2)c(=O)c2cc(F)c(N3CCCCCC3)cc21`, inactive: -19.8%; for `Cc1cc(C)cc(-n2c(SCC(=O)Nc3ccc4c(c3)OCCO4)nc3c([nH]c4ccccc43)c2=O)c1`, inactive: 20.1%.
To `COc1ccc(C)cc1-n1cnc2cc(C(=O)NC3CCCC3)ccc21` belongs inactive: 4.99%.
As for `COc1cc(C(=O)Nc2nonc2-c2ccc(C)c(C)c2)cc(OC)c1OC`, the “activity change, negative = cytotoxicity” value was inactive: 13%.
`Cc1ccc(NC(=O)c2ccc(NC(=O)N3CCSc4ncccc43)cc2)c(C)c1`: the “activity change, negative = cytotoxicity” value was inactive: 14.7%.
Take `O=C(CSc1nc(-c2ccc(F)cc2)cc(C(F)(F)F)n1)NCCc1ccccc1`: the “activity change, negative = cytotoxicity” value is inactive: 17.7%.
Consider `COc1cccc(N2CCN(S(=O)(=O)c3ccc(-c4ccno4)cc3OC)CC2)c1`, for which the “activity change, negative = cytotoxicity” value is inactive: -24.5%.
Regarding `O=C(CSc1cn(CC(=O)N2CCCCC2)c2ccccc12)Nc1ccc(C(F)(F)F)cc1`, the “activity change, negative = cytotoxicity” value was inactive: 5.13%.
To `COc1ccc(OC)c(C2NC(=O)NC(C)=C2C(=O)Nc2ccc(F)cc2)c1` (stereo unspecified) belongs inactive: -1.75%; to `Cc1ccc(C(c2sc3nc(-c4ccco4)nn3c2O)N2CCC3(CC2)OCCO3)cc1` (stereo unspecified), inactive: 17.4%; to `CCc1cccc(Nc2ncnc3onc(-c4ccc(F)cc4)c23)c1`, inactive: -4.77%.
Regarding `COC(=O)c1c(C)nn(-c2ccc(F)cc2)c1-n1cccc1`, the “activity change, negative = cytotoxicity” value was inactive: 5.83%.
To `Cc1ccc(C(=O)NCc2ccc(F)cc2)cc1NC(=O)c1nsc2ccccc12` belongs inactive: -3.72%; to `CCN(CC)CCNC(=O)c1sc2ncccc2c1-n1cccc1`, inactive: -2.48%; to `COc1ccc(NC(=O)c2ccco2)cc1NC(=O)COc1ccc(Cl)cc1C`, inactive: -4.69%.
To `Cc1ccc(NC(=O)Cn2c(=O)n(Cc3nc(-c4ccccc4)no3)c(=O)c3cc4c(cc32)OCO4)c(C)c1` belongs inactive: 5.24%; to `COc1cccc(Nc2nc3ccc(C)cc3nc2-n2nc(C)cc2C)c1`, inactive: 5.22%.
With `COc1ccc(Nc2c(-c3ccccn3)nc3ccc(Cl)cn23)cc1`, the “activity change, negative = cytotoxicity” value is inactive: -12.7%.
For `Cc1ccc(NC(=O)C2=CC(c3ccc4c(c3)OCO4)=NS(=O)(=O)N2C)cc1` the value was inactive: 10.5%; for `CCc1ccc(-n2c(=O)c3cccnc3n2CC(=O)NCc2ccc(C)cc2)cc1`, inactive: 5.28%.
Regarding `COc1ccc(CCNC(=O)CSc2n[nH]c(-c3ccccc3Cl)n2)cc1OC`, the “activity change, negative = cytotoxicity” value is inactive: 12%.
`COc1ccc(Cl)cc1NC(=O)CSC1=Nc2ccccc2C2=NC(CC(=O)NCc3cccs3)C(=O)N12` (stereo unspecified): the “activity change, negative = cytotoxicity” value was inactive: -9.02%.
For `O=C(NCc1ccccc1)c1cnc(N2CCCCC2)c2ccccc12` the value was inactive: 12.2%; for `CCOC(=O)c1cc2c(=O)n3ccccc3nc2n(Cc2ccco2)c1=NC(=O)c1ccc(OCC)cc1`, inactive: -3.21%; for `Cn1c(=O)n(CCCc2ccccc2)c(=O)c2c1nc1n2CCN1c1ccc(F)cc1`, inactive: -14.7%.
To `Cc1nn(C(=O)c2ccc(Br)cc2)c(C)c1Sc1ccccc1` belongs inactive: -8.08%; to `COc1cc(OC)c(N(C)C(=O)c2sc3nc4n(c(=O)c3c2C)CCCC4)cc1Cl`, inactive: -1.92%; to `CCCCOC(=O)c1ccc(NC(=O)c2cnc3ccc(C)cn3c2=O)cc1`, inactive: -5%.
Turning to `CCn1c(=O)cc(OCC(=O)N2CCN(c3ccc(F)cc3)CC2)c2ccccc21`, the “activity change, negative = cytotoxicity” value was inactive: 9.4%.
For `CCN(c1cccc(C)c1)c1ncnc2c1cnn2-c1cccc(Cl)c1` the value was inactive: 21.6%; for `CC(C)NC(=O)CCN1C(=O)c2ccccc2Sc2ncccc21`, inactive: 10.4%; for `O=C(NC1CC(=O)N(c2ccc(F)cc2)C1)C1CC1` (stereo unspecified), inactive: 0.106%.
Take `COc1ccc2oc(=O)c(-c3nc(-c4cccs4)no3)cc2c1`: the “activity change, negative = cytotoxicity” value is inactive: 8.55%.
To `Cc1ccc(NC(=O)Cn2nnc(C(=O)NCc3ccc4c(c3)OCO4)c2N)cc1Cl` belongs inactive: 1.44%; to `CCc1ccc(NC(=O)Cn2cc(S(=O)(=O)N3CCCC3)c(S(=O)(=O)N3CCCC3)c2)cc1`, inactive: 2.5%; to `CSc1nc2sc3c(c2c(=O)n1-c1ccccc1)CCC(C(C)(C)C)C3` (stereo unspecified), inactive: 4.21%.
To `COc1ccccc1-c1noc(-c2ccc(NC(C)C)c([N+](=O)[O-])c2)n1` belongs inactive: -13.2%; to `COc1ccc(Cn2c(=O)[nH]c3cc(C(=O)N4CCN(c5cc(Cl)ccc5C)CC4)ccc3c2=O)cc1`, inactive: 4.57%.
To `COc1ccc2[nH]cc(S(=O)(=O)c3ccc(C)c(C)c3)c(=O)c2c1` belongs inactive: -0.395%; to `O=C(CCCCn1c(=O)c2ccccc2n(CC(=O)Nc2cccc(F)c2)c1=O)NCCc1ccccc1`, inactive: -0.607%; to `COc1ccc(-c2nn(-c3cccc(F)c3)c3c2cnc2cc(OC)c(OC)cc23)cc1`, inactive: -1.66%.
Regarding `Cc1ccc(S(=O)(=O)NCCc2csc3nc(-c4ccccc4C)nn23)cc1`, the “activity change, negative = cytotoxicity” value is inactive: 6.73%.
Turning to `O=C(CSc1nc2ccsc2c(=O)n1Cc1ccccc1Cl)NCc1ccc(Cl)cc1`, the “activity change, negative = cytotoxicity” value was inactive: 11.5%.
To `O=C(CSc1nc2ccccc2n1Cc1c(F)cccc1Cl)N1CCN(c2ccc(F)cc2)CC1` belongs inactive: 1.41%.
As to `CCOc1cc(CNC(=O)c2ccc3nc(CCc4ccccc4)oc3c2)ccc1OC`, the “activity change, negative = cytotoxicity” value is inactive: -5.5%.
Turning to `COc1ccc(NC(=O)CN2C(=O)C3(SCC(=O)N3c3cccc(OC)c3)c3ccccc32)cc1` (stereo unspecified), the “activity change, negative = cytotoxicity” value is inactive: 7.57%.
To `COc1ccc(N2CC(NC(=O)c3c(F)cccc3Cl)CC2=O)cc1OC` (stereo unspecified) belongs inactive: 16.4%.
To `CCC(C(=O)N1CCN(c2ccccc2)CC1)n1nc(C)c2sc3ccccc3c2c1=O` (stereo unspecified) belongs inactive: 0.644%.
With `Cc1ccccc1NC(=O)c1cnc2sc(N3CCCC3)nn2c1=O`, the “activity change, negative = cytotoxicity” value was inactive: 3.05%.
`O=C(Nc1nnc(SCc2cc(=O)n3cc(Cl)ccc3n2)s1)c1cccc(F)c1`: the “activity change, negative = cytotoxicity” value was inactive: 13.3%.
To `O=C(c1ccc2c(Cl)c3c(nc2c1)CCCC3)N1CCN(c2ccccc2F)CC1` belongs inactive: 3.92%; to `COc1cccc(N2CC(NC(=O)C3CC3)CC2=O)c1` (stereo unspecified), inactive: 2.78%.
With `CC1=C(C(=O)Nc2cccc(C(F)(F)F)c2)C(c2ccccc2)n2ncnc2N1` (stereo unspecified), the “activity change, negative = cytotoxicity” value was inactive: 12.7%.
As for `CCc1cccc(C)c1NC(=O)CCn1nc(C)c2c(C)n(-c3ccccc3)nc2c1=O`, the “activity change, negative = cytotoxicity” value was inactive: -2.87%.
With `COc1ccc(NC(=O)Cc2noc3ccc(C)cc23)cc1Cl`, the “activity change, negative = cytotoxicity” value was inactive: -9.36%.
For `CCOC(=O)c1c(S(=O)(=O)N2CCC(C(=O)Nc3cccc(C)n3)CC2)c(C)n(C)c1C` the value was inactive: 11.5%.
In the case of `CCC(C)NC(=O)Cn1c(=O)ccc2cc(S(=O)(=O)N3CCCC3)ccc21` (stereo unspecified), the “activity change, negative = cytotoxicity” value was inactive: 16.8%.
To `CCCN(C(=O)c1cc2c(=O)oc3ccccc3c2s1)c1ccccc1C` belongs inactive: -1.11%; to `Cc1ccc(NC(=O)Cn2nnc(C(=O)NCCc3ccccc3)c2N)cc1Cl`, inactive: -0.793%; to `CCc1ccc2c(c1)c(=O)c(S(=O)(=O)c1ccccc1)cn2CC(=O)Nc1ccc(OC)cc1`, inactive: 2.7%.
With `COCC(=O)N1c2nc(-c3ccco3)nn2C2(CCCCC2)[C@@H]2CCCC[C@@H]21`, the “activity change, negative = cytotoxicity” value was inactive: -9.94%.
On to `CCOc1ccc2c(c1)c(=O)c(C(=O)c1ccc(CC)cc1)cn2CC(=O)Nc1ccccc1C`, for which the “activity change, negative = cytotoxicity” value was inactive: -4.33%.
With `Cc1ccc(C)c(N2CCN(c3nc4c(S(=O)(=O)c5ccccc5)nnn4c4ccc(Cl)cc34)CC2)c1`, the “activity change, negative = cytotoxicity” value is inactive: 7.69%.
For `Cc1cccc(NC(=O)C2CCCN(c3nc4ccccc4s3)C2)c1C` (stereo unspecified) the value was inactive: 12.8%; for `CCOC(=O)C1CCCN(C(=O)Cn2nc(CC)n3c(cc4occc43)c2=O)C1` (stereo unspecified), inactive: 21%; for `CC(=O)c1ccc(N2C(=O)N(Cc3cc(C)ccc3C)c3ccccc3S2(=O)=O)cc1`, inactive: 24%.
For `O=S(=O)(Nc1ccc(Cl)cc1)c1cccc(S(=O)(=O)c2ccc(Cl)c(Cl)c2)c1` the value was inactive: 2.59%; for `Cc1ccc(CCNC(=O)c2ccc(CS(=O)(=O)Cc3ccccc3F)o2)cc1`, inactive: -0.502%.
Regarding `CCOc1ccccc1NC(=O)CN1C=NS(=O)(=O)c2ccccc21`, the “activity change, negative = cytotoxicity” value is inactive: 3.62%.
For `COc1cccc2cc(-c3nc(-c4ccc(C)cc4)c(C)s3)c(=O)oc12` the value was inactive: 13.5%; for `Cc1ccc(C(=O)Nc2ccc3nc(N4CCCCC4)cc(C)c3c2)cc1F`, inactive: -23%; for `Cc1ccc(NC(=O)CCNS(=O)(=O)c2ccc3c(c2)CCCC(=O)N3)cc1`, inactive: 13.4%.
To `COc1ccc2c(c1)c1c(c(=O)n(-c3ccccc3C)c(=O)n1Cc1c(F)cccc1Cl)n2C` belongs inactive: -3.03%; to `CCOC(=O)C1(C)C=C(Nc2ccc(C(=O)O)cc2)C(=O)N1c1ccc(C(=O)O)cc1` (stereo unspecified), inactive: -5.6%.
As for `CCCCN(C)C(=O)Cn1c(SCC(=O)Nc2ccc(C)c(C)c2)nc2ccccc21`, the “activity change, negative = cytotoxicity” value was inactive: -17.7%.
As for `Cc1nc2ccccc2n1CCc1nc2c3ccccc3nc(SCc3ccc(F)cc3)n2n1`, the “activity change, negative = cytotoxicity” value was inactive: 10.5%.
To `CCOC(=O)c1c(C)oc2nc(C)nc(NCC3CCN(Cc4cccc(Cl)c4)CC3)c12` belongs inactive: -0.0664%; to `Cc1cc(C)c(OCC(=O)N(Cc2cccc(F)c2)Cc2ccco2)c(C)c1`, inactive: -13.9%.
Consider `CC(=O)N1CCc2cc(S(=O)(=O)NC(Cc3ccccc3)C(=O)Nc3ccc(Cl)cc3)ccc21` (stereo unspecified), for which the “activity change, negative = cytotoxicity” value was inactive: -5.21%.
For `CCc1nn(CC(=O)N2CCN(c3cccc(C(F)(F)F)c3)CC2)c(=O)c2cccn12`, the “activity change, negative = cytotoxicity” value is inactive: -4.83%.
For `CCOC(=O)c1ccc(NS(=O)(=O)c2ccc3[nH]c4c(c3c2)CCCCC4)cc1` the value was inactive: -1.59%.
For `Cc1oc(-c2ccc(C(=O)Nc3ccccc3F)cc2)nc1COc1ccccc1` the value was inactive: 2.86%; for `CCOc1ccccc1NC(=O)Cn1c2ncccc2c(=O)n1-c1ccc(C)c(C)c1`, inactive: 5.55%.
Turning to `CCc1ccc2nc(N3CCN(C(=O)C4CC4)CC3)sc2c1`, the “activity change, negative = cytotoxicity” value was inactive: -1.12%.
For `CC(=O)N1CCCc2cc(S(=O)(=O)Nc3ccc(C)c(F)c3)ccc21` the value was inactive: -2.06%.

These data come from PubChem BioAssay AID1508642 (National Center for Advancing Translational Sciences (NCATS), 2021).
